The target of the experiment is T1, human VEGF165 (human, UniProt P15692-4 27-191).
T1 construct: VEGF165 is the 165-residue isoform of VEGF-A
T1 sequence (looked up): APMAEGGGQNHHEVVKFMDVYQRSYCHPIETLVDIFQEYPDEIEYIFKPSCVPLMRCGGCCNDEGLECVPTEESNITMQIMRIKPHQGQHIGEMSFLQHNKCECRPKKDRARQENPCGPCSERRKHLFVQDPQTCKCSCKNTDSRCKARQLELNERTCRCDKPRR
Put plainly: quantitative ELISA; serial concentrations of fusion protein mixed with 40 pM human VEGF165, detection with anti-human IgG Fc-HRP. The procedure:
Binding assay of fusion proteins with VEGF were performed by quantitative ELISA kit using VEGF-Trap as control. Fusion proteins were mixed in serial concentrations with 40 pM human VEGF₁₆₅, and incubated at 37° C. for 1 hour. After washing, goat anti human IgG Fc-HRP was added and TMB visualization was performed. The EC₅₀ for the fusion protein SR1 and VEGF-Trap was calculated.

B1: fusion protein SR1 (Fc fusion)
chain: SDTGRPFVEMYSEIPEIIHMTEGRELVIPCRVTSPNITVTLKKFPLDTLIPDGKRIIWDSRKGFIISNATYKEIGLLTCEATVNGHLYKTNYLTHRQTNTIIDPFIASVSDQHGVVYITENKNKTVVIPCLGSISNLNVSLCARYPEKRFVPDGNRISWDSKKGFTIPSYMISYAGMVFCEAKINDESYQSIMYIVVVVGYRIYDVVLSPSHGIELSVGEKLVLNCTARTELNVGIDFNWEYPSSKHQHKKLVNRDLKTQSGSEMKKFLSTLTIDGVTRSDQGLYTCAASSGLMTKKNSTFVRVHEK[skipping human IgG1 Fc]
modifications: Glycosylated, Fc-mediated homodimer; one chain given.
notes: Expressed with the Flt1 signal peptide (NP-002010:1-26), which is not part of the secreted protein
For the molecule B1, the EC50 was 0.092 µg/mL.

These data come from patent US20100331250A1 (GENOR BIOPHARMA, published 2010).
